# In article PMC3891740:
# No constants are given. Whether binding was seen depends on the method and setting. Binding seen in cells or lysates may run through a third protein. Some results given as binding are weak or reduced against the parent protein; the word gives no strength. For some assays here: Where a sequence is shown, tags or fusion partners need not be part of it.
# B1: GFP-TMCC2 (protein, UniProt O75069-1 1-709)
# chain: MKRCRSDELQQQQGEEDGAGLEDAASHLPGADLRPGETTGANSAGGPTSDAGAAAAPNPGPRSKPPDLKKIQQLSEGSMFGHGLKHLFHSRRRSREREHQTSQDSQQHQQQQGMSDHDSPDEKERSPEMHRVSYAMSLHDLPARPTAFNRVLQQIRSRPSIKRGASLHSSSGGGSSGSSSRRTKSSSLEPQRGSPHLLRKAPQDSSLAAILHQHQCRPRSSSTTDTALLLADGSNVYLLAEEAEGIGDKVDKGDLVALSLPAGHGDTDGPISLDVPDGAPDPQRTKAAIDHLHQKILKITEQIKIEQEARDDNVAEYLKLANNADKQQVSRIKQVFEKKNQKSAQTIAQLHKKLEHYRRRLKEIEQNGPSRQPKDVLRDMQQGLKDVGANVRAGISGFGGGVVEGVKGSLSGLSQATHTAVVSKPREFASLIRNKFGSADNIAHLKDPLEDGPPEEAARALSGSATLVSSPKYGSDDECSSASASSAGAGSNSGAGPGGALGSPKSNALYGAPGNLDALLEELREIKEGQSHLEDSMEDLKTQLQRDYTYMTQCLQEERYRYERLEEQLNDLTELHQNEMTNLKQELASMEEKVAYQSYERARDIQEAVESCLTRVTKLELQQQQQQVVQLEGVENANARALLGKFINVILALMAVLLVFVSTIANFITPLMKTRLRITSTTLLVLVLFLLWKHWDSLTYLLEHVLLPS
# B2: GFP-TMCC3 (protein, UniProt Q9ULS5 1-477)
# chain: MPGSDTALTVDRTYSYPGRHHRCKSRVERHDMNTLSLPLNIRRGGSDTNLNFDVPDGILDFHKVKLTADSLKQKILKVTEQIKIEQTSRDGNVAEYLKLVNNADKQQAGRIKQVFEKKNQKSAHSIAQLQKKLEQYHRKLREIEQNGASRSSKDISKDHLKDIHRSLKDAHVKSRTAPHCMESSKSGMPGVSLTPPVFVFNKSREFANLIRNKFGSADNIAHLKNSLEEFRPEASARAYGGSATIVNKPKYGSDDECSSGTSGSADSNGNQSFGAGGASTLDSQGKLAVILEELREIKDTQAQLAEDIEALKVQFKREYGFISQTLQEERYRYERLEDQLHDLTDLHQHETANLKQELASIEEKVAYQAYERSRDIQEALESCQTRISKLELHQQEQQALQTDTVNAKVLLGRCINVILAFMTVILVCVSTIAKFVSPMMKSRCHILGTFFAVTLLAIFCKNWDHILCAIERMIIPR
# Experiments:
# [1] = biological target: endogenous TMCC1 (human (endogenous in HEK293T and HeLa)) (UniProt O94876); test: co-IP; HEK293T transfected with GFP-tagged TMCC1(571–653), TMCC2 or TMCC3; endogenous TMCC1 precipitated with the TMCC1 antibody on Protein A agarose (normal rabbit IgG as control); western blot for TMCC1 and GFP-tagged proteins
# [2] = biological target: FLAG-TMCC1 (FLAG-tagged full-length TMCC1) (human) (UniProt O94876); test: co-IP; HEK293T co-transfected with GFP-TMCC1 and FLAG-tagged TMCC1 full length or fragments; lysates (10 mM Tris-HCl pH 7.4, 150 mM NaCl, 1 mM MgCl2, 1 mM EDTA, 1% Triton X-100) precipitated with anti-FLAG M2 agarose at 4°C; western blot
# [3] = biological target: FLAG-TMCC1(1–575) (human) (UniProt O94876); test: as above
# [4] = biological target: FLAG-TMCC1(310–575) (human) (UniProt O94876); test: as above
# [5] = biological target: FLAG-TMCC1(460–575) (human) (UniProt O94876); test: as above
# [6] = biological target: FLAG-TMCC1(571–653) (human) (UniProt O94876); test: as above
molecule,measurement,setting,value
GFP-TMCC1(571–653) (from UniProt O94876-1 571-653) (domain or fragment),binding,[1],no binding
GFP-TMCC1 (GFP-tagged full-length transmembrane and coiled-coil domain family 1) (from UniProt O94876-1 1-653),binding,[2],binds
same,binding,[3],binds
same,binding,[4],binds
same,binding,[5],binds
same,binding,[6],no binding
B1,binding,[1],binds
B2,binding,[1],binds
